This experiment concerns the target T1, murine ICOS (murine, UniProt Q9WVS0 21-200).
T1 construct: in the splenocyte assays the endogenous protein on murine T cells; also called mICOS
T1 sequence: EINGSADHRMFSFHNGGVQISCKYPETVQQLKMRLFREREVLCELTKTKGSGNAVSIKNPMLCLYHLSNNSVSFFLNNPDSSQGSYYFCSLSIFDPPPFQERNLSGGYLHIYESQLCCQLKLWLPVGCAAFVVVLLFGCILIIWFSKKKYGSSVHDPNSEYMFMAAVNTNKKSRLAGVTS
The experiment can be described thus: flow cytometry on CHO-K1 transfectants expressing murine ICOS. As to the method:
The staining was fixed for 20 min at 4° C. in the dark, using 75 μl of 1% PFA in FACS buffer per well. Fluorescence was analyzed by FACS using a FACS Fortessa (Software FACS Diva). Binding curves were obtained using GraphPadPrism6 and are shown in FIGS. 6A-6C and 7A-7B, respectively.

Among the data in patent US20200306373A1 (Hoffmann-La Roche, published 2020) are EC50 values, retold here.

B1: Untargeted mICOSL, mIgG1 DAPG, bivalent murine ICOSL (Gly47-Lys279), monovalent untargeted moiety c-terminal fused of the heavy chain C region (Fc fusion)
chain 1: ETEVGAMVGSNVVLSCIDPHRRHFNLSGLYVYWQIENPEVSVTYYLPYKSPGINVDSSYKNRGHLSLDSMKQGNFSLYLKNVTPQDTQEFTCRVFMNTATELVKILEEVVRLRVAANFSTPVISTSDSSNPGQERTYTCMSKNGYPEPNLYWINTTDNSLIDTALQNNTVYLNKLGLYDVISTLRLPWTSRGDVLCCVENVALHQNITSISQAESFTGNNTKNPQETHNNELKGSPGSSSSSGSAGSPGSSSSSGSADGCKPCICTVPEVSSVFIFPPKPKDVLTITLTPKVTCVVVAISKDDPEVQFSWFVDDVEVHTAQTKPREEQINSTFRSVSELPIMHQDWLNGKEFKCRVNSAAFGAPIEKTISKTKGRPKAPQVYTIPPPKKQMAKDKVSLTCMITNFFPEDITVEWQWNGQPAENYKNTQPIMKTDGSYFVYSKLNVQKSNWEAGNTFTCSVLHEGLHNHHTEKSLSHSPGGGGGSGGGGSGGGGSGGGGS[about 100 residues cut from this listing]
chain 2: ETEVGAMVGSNVVLSCIDPHRRHFNLSGLYVYWQIENPEVSVTYYLPYKSPGINVDSSYKNRGHLSLDSMKQGNFSLYLKNVTPQDTQEFTCRVFMNTATELVKILEEVVRLRVAANFSTPVISTSDSSNPGQERTYTCMSKNGYPEPNLYWINTTDNSLIDTALQNNTVYLNKLGLYDVISTLRLPWTSRGDVLCCVENVALHQNITSISQAESFTGNNTKNPQETHNNELKGSPGSSSSSGSAGSPGSSSSSGSADGCKPCICTVPEVSSVFIFPPKPKDVLTITLTPKVTCVVVAISKDDPEVQFSWFVDDVEVHTAQTKPREEQINSTFRSVSELPIMHQDWLNGKEFKCRVNSAAFGAPIEKTISKTKGRPKAPQVYTIPPPKEQMAKDKVSLTCMITNFFPEDITVEWQWNGQPAENYDNTQPIMDTDGSYFVYSDLNVQKSNWEAGNTFTCSVLHEGLHNHHTEKSLSHSPGGGGGSGGGGSGGGGSGGGGS[about 100 residues cut from this listing]GSGFDYWGQGTLVTVSS
notes: also called DP47-mICOS-L; DP47-mFAP-L
The EC50 is the concentration that produces a half-maximal response. Turning to B1, the midpoint of the response, the EC50, lay at 23.6 nM.
